# Measurements reported in the supplement of paper PMC8728848.
# Some of the results follow.
# B1: B1567 (Bifidobacterium sp) (protein)
# chain: MKFTTAKKAVALTGAVAMLVSVAACGSDSGKSSQPAQDSDVKEITVWAWEPSLTQVAKDFEKETGIKVDLKNVGTNTKEYTQLDNAIEAGSGAPDVAQVEYYAVPQYAIKGNLLDITDKTSGYKDFYTPGPWASVQFAGKVYGLPMDSGPMAFFYNKEVFDKAGVDAEQIKTWDQYYDAAKKIHALGDNYYITSDTGDAGFFDSMTWLAGAKPFQTSSDGSEVTVNLTEDKGVKTFTDFWQKLLDEGLLDTKTAGWSEDWFKGMVDGTIASLFTGAWMPANLANSAADGAGKWRVTQMPTADGSTTNSENGGSSLAVLASTKKADAAYQFIEYANHGAGVATRVAGGAFPADKASLEKDSFKNATTVKNADGQDVDYFGGQKYNEVLAQAAENVSSGYQFLPFEVKARTIFGDYFGKSYTGDQKLSDGVAAWQKALQDYGKDQGFTVK
# Assays:
# Test in all cases: glycan array binding signal (z-score within array); higher = stronger binding
# Conditions in all cases: glycan notation: IUPAC condensed, linker removed
# Gal6S(b1-4)Glc6S = molecular target: Gal6S(b1-4)Glc6S
# In short: (§1)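 Negative Z-scores can be read as non-binding. The Z-score is calculated within each array and then averaged across arrays of one protein sequence at different concentrations or buffers and across linkers. Arrays, 3228 in all, were curated from the Consortium for Functional Glycomics database and kept only where the protein sequence was available.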
# Gal6S(b1-4)GlcNAc = molecular target: Gal6S(b1-4)GlcNAc
# In short: as §1
# Gal6S(b1-4)GlcNAc6S = molecular target: Gal6S(b1-4)GlcNAc6S
# In short: as §1
# GalNAc(a1-3)Gal = molecular target: GalNAc(a1-3)Gal
# In short: as §1
# GalNAc(a1-3)GalNAc = molecular target: GalNAc(a1-3)GalNAc
# In short: as §1
# [1] = molecular target: GalNAc(a1-3)GalNAc(b1-3)Gal(a1-4)Gal(b1-4)Glc
# In short: as §1
# [2] = molecular target: GalNAc(a1-3)GalNAc(b1-3)Gal(a1-4)Gal(b1-4)GlcNAc
# In short: as §1
# GalNAc(b1-3)Gal = molecular target: GalNAc(b1-3)Gal
# In short: as §1
# [3] = molecular target: GalNAc(b1-3)Gal(a1-4)Gal(b1-4)GlcNAc
# In short: as §1
# [4] = molecular target: GalNAc(b1-3)Gal(a1-4)Gal(b1-4)GlcNAc(b1-3)Gal(b1-4)Glc
# In short: as §1
# [5] = molecular target: GalNAc(b1-3)Gal(a1-6)Gal(b1-4)Glc
# In short: as §1
# GalNAc(b1-3)GalNAc = molecular target: GalNAc(b1-3)GalNAc
# In short: as §1
# GalNAc(b1-3)GlcNAc = molecular target: GalNAc(b1-3)GlcNAc
# In short: as §1
# GalNAc(b1-4)Gal(b1-4)Glc = molecular target: GalNAc(b1-4)Gal(b1-4)Glc
# In short: as §1
# GalNAc(b1-4)GlcNAc = molecular target: GalNAc(b1-4)GlcNAc
# In short: as §1
# [6] = molecular target: GalNAc(b1-4)GlcNAc(b1-2)Man
# In short: as §1
# [7] = molecular target: GalNAc(b1-4)GlcNAc(b1-2)Man(a1-3)[GalNAc(b1-4)GlcNAc(b1-2)Man(a1-6)]Man(b1-4)GlcNAc(b1-4)GlcNAc
# In short: as §1
# [8] = molecular target: GalNAc(b1-4)GlcNAc(b1-3)GalNAc(b1-4)GlcNAc
# In short: as §1
# GalNAc(b1-4)GlcNAc6S = molecular target: GalNAc(b1-4)GlcNAc6S
# In short: as §1
# GalNAc(b1-6)GalNAc = molecular target: GalNAc(b1-6)GalNAc
# In short: as §1
# GalNAc3S(b1-4)GlcNAc = molecular target: GalNAc3S(b1-4)GlcNAc
# In short: as §1
# GalNAc3S(b1-4)GlcNAc3S = molecular target: GalNAc3S(b1-4)GlcNAc3S
# In short: as §1
# [9] = molecular target: GalNAc3S(b1-4)[Fuc(a1-3)]GlcNAc
# In short: as §1
# GalNAc4S6S(b1-4)GlcNAc = molecular target: GalNAc4S6S(b1-4)GlcNAc
# In short: as §1
# GalNAc6S(b1-4)GlcNAc = molecular target: GalNAc6S(b1-4)GlcNAc
# In short: as §1
# Glc(a1-4)Glc = molecular target: Glc(a1-4)Glc
# In short: as §1
# [10] = molecular target: Glc(a1-4)Glc(a1-4)Glc(a1-4)Glc
# In short: as §1
# Glc(a1-6)Glc(a1-6)Glc = molecular target: Glc(a1-6)Glc(a1-6)Glc
# In short: as §1
# [11] = molecular target: Glc(a1-6)Glc(a1-6)Glc(a1-6)Glc
# In short: as §1
# Glc(b1-4)Glc = molecular target: Glc(b1-4)Glc
# In short: as §1
# Glc(b1-6)Glc = molecular target: Glc(b1-6)Glc
# In short: as §1
# GlcA(b1-3)Gal = molecular target: GlcA(b1-3)Gal
# In short: as §1
# GlcA(b1-3)GlcNAc = molecular target: GlcA(b1-3)GlcNAc
# In short: as §1
# GlcA(b1-6)Gal = molecular target: GlcA(b1-6)Gal
# In short: as §1
# [12] = molecular target: GlcA3S(b1-3)Gal(b1-4)GlcNAc(b1-2)Man
# In short: as §1
# [13] = molecular target: GlcA3S(b1-3)Gal(b1-4)GlcNAc(b1-3)Gal(b1-4)Glc
# In short: as §1
# [14] = molecular target: GlcNAc(a1-3)Gal(b1-4)GlcNAc
# In short: as §1
binder,measurement,setting,value
B1,glycan array binding signal (z-score),Gal6S(b1-4)Glc6S,-0.084
same,glycan array binding signal (z-score),Gal6S(b1-4)GlcNAc,-0.075
same,glycan array binding signal (z-score),Gal6S(b1-4)GlcNAc6S,-0.167
same,glycan array binding signal (z-score),GalNAc(a1-3)Gal,-0.066
same,glycan array binding signal (z-score),GalNAc(a1-3)GalNAc,-0.16
same,glycan array binding signal (z-score),[1],-0.142
same,glycan array binding signal (z-score),[2],-0.114
same,glycan array binding signal (z-score),GalNAc(b1-3)Gal,-0.116
same,glycan array binding signal (z-score),[3],-0.025
same,glycan array binding signal (z-score),[4],-0.139
same,glycan array binding signal (z-score),[5],-0.138
same,glycan array binding signal (z-score),GalNAc(b1-3)GalNAc,-0.045
same,glycan array binding signal (z-score),GalNAc(b1-3)GlcNAc,-0.056
same,glycan array binding signal (z-score),GalNAc(b1-4)Gal(b1-4)Glc,-0.058
same,glycan array binding signal (z-score),GalNAc(b1-4)GlcNAc,-0.036
same,glycan array binding signal (z-score),[6],0.004
same,glycan array binding signal (z-score),[7],0.398
same,glycan array binding signal (z-score),[8],-0.104
same,glycan array binding signal (z-score),GalNAc(b1-4)GlcNAc6S,-0.109
same,glycan array binding signal (z-score),GalNAc(b1-6)GalNAc,-0.095
same,glycan array binding signal (z-score),GalNAc3S(b1-4)GlcNAc,-0.096
same,glycan array binding signal (z-score),GalNAc3S(b1-4)GlcNAc3S,-0.058
same,glycan array binding signal (z-score),[9],-0.161
same,glycan array binding signal (z-score),GalNAc4S6S(b1-4)GlcNAc,-0.099
same,glycan array binding signal (z-score),GalNAc6S(b1-4)GlcNAc,-0.094
same,glycan array binding signal (z-score),Glc(a1-4)Glc,-0.079
same,glycan array binding signal (z-score),[10],-0.046
same,glycan array binding signal (z-score),Glc(a1-6)Glc(a1-6)Glc,-0.085
same,glycan array binding signal (z-score),[11],-0.142
same,glycan array binding signal (z-score),Glc(b1-4)Glc,-0.133
same,glycan array binding signal (z-score),Glc(b1-6)Glc,-0.141
same,glycan array binding signal (z-score),GlcA(b1-3)Gal,-0.122
same,glycan array binding signal (z-score),GlcA(b1-3)GlcNAc,-0.129
same,glycan array binding signal (z-score),GlcA(b1-6)Gal,-0.009
same,glycan array binding signal (z-score),[12],-0.055
same,glycan array binding signal (z-score),[13],-0.104
same,glycan array binding signal (z-score),[14],-0.15
